About 210 (18%) of roughly 1,200 compounds were called active. Cut-off read from the data, not from the text of the source: active = inhibition above about 30%; inactive = the rest. This is a selection; strong and weak results do not stand in their true shares.
Assay: HTRF signal interference by compounds, confirmation, artefact control for SUMOylation inhibitor project, biochemical, uHTS (AID 2069)
Details: HTRF interference counterscreen, fluorescence, at 35 µM, active compounds read high

Compound | inhibition
CCN(CC)C(=O)c1sc2nc(-c3ccncc3)[nH]c(=O)c2c1C | active: 47.2%
COc1cc(NC(=O)c2cncc(-c3ccc(C#N)cc3)c2)cc(C(=O)Nc2cccc(C(F)(F)F)c2)c1 | inactive: 10.9%
O=C(Nc1ccc2oc(-c3ccc4ccccc4c3)nc2c1)c1ccc2c(c1)OCCO2 | inactive: 8.15%
NCCc1ccc(O)c(O)c1 | inactive: -9.25%
CN(C(=O)CSc1nnc(NCc2ccccc2)s1)C1CCS(=O)(=O)C1 (configuration not stated) | inactive: -3.15%
COc1ccc2c(c1)c(=O)oc1c(C)c(OCc3ccc(C(=O)O)cc3)ccc12 | active: 31.4%
C(=N\C(/N=C/c1ccco1)c1ccco1)/c1ccco1 | inactive: 7.4%
CC(=O)Nc1ccc(-c2nc3ccc(NC(C)=O)cc3o2)cc1 | active: 40.8%
O=C(N/N=C/c1ccc(O)c(O)c1)N/N=C/c1ccc(O)c(O)c1 | inactive: 11.1%
Cc1ccc(NC(=S)Nc2cccc3cnccc23)cc1C | inactive: -9.75%
Cc1[nH][nH]c(=O)c1C(c1ccc(-c2ccc(Cl)c(Cl)c2)o1)c1c(C)[nH][nH]c1=O | inactive: -44.4%
COc1ccccc1C1Nc2cccc3cccc(c23)N1 | inactive: -18.4%
Cc1nc2c3cc(F)ccc3n(Cc3ccc(F)cc3)c2s1 | inactive: -4.4%
Oc1cccc2c(NC(=S)Nc3ccc(SC(F)F)cc3)cccc12 | inactive: -6.1%
S=c1[nH]nc(-c2ccccc2Cl)n1/N=C/C=C/c1ccco1 | inactive: -12.8%
Cc1ccc(C)n1-c1nccc(-c2cccs2)n1 | inactive: 10.5%
O=C(NNc1cc(N2CCCC2)nc(N2CCCC2)n1)c1ccc([N+](=O)[O-])cc1 | inactive: -2.1%
Cc1cc(C)c(C(N)=O)c(Nc2cccc3ccccc23)n1 | inactive: 0.7%
CCN(CC)c1cc(Cl)c2nonc2c1N | inactive: -13.9%
COc1ccccc1Oc1c(C)oc2c(CN3CCN(C)CC3)c(O)ccc2c1=O | active: 30.4%
O=C(CNc1cccc2ccccc12)N/N=C/c1ccc([N+](=O)[O-])o1 | inactive: 1.3%
CC1(C)CC(=O)C2=C(C1)Nc1[nH]c(=S)[nH]c(=O)c1C2c1ccccc1 (configuration not stated) | inactive: 5.95%
CN(C)S(=O)(=O)c1cccc(-c2nn(-c3ccccc3)cc2/C=C2\SC(=S)NC2=O)c1 | inactive: -4%

Compound | inhibition
CC(=O)Nc1ccc2nc3ccccc3nc2c1 | active: 36.7%
Cc1c(C)c2cc(Cl)c(O)c(CN3CCN(C)CC3)c2oc1=O | active: 30.6%
O=C(N/N=C/c1cc(Br)cc(Br)c1O)c1ccncc1 | inactive: 12.4%
Cc1ccc(-c2cc(C(=O)N/N=C/c3ccc([N+](=O)[O-])o3)c3ccccc3n2)o1 | inactive: -0.25%
Nc1ccc2oc(-c3cccs3)nc2c1 | active: 37.1%
Nc1ccc(N(CCO)CCO)cc1 | inactive: -18.9%
CCN(CC)CCNS(=O)(=O)c1ccc2c3c(cccc13)C(=O)N2 | active: 47.2%
COCCN(CCOC)S(=O)(=O)c1ccc(C(=O)Nc2nc3c(s2)CCc2ccccc2-3)cc1 | active: 36.7%
S=c1[nH]nc(-c2cc(-c3ccccc3)n[nH]2)n1/N=C/c1ccc(Cl)c(Cl)c1 | inactive: -4.5%
Oc1ccc(/C=N/Nc2cc(N3CCCC3)nc(N3CCCC3)n2)cc1O | active: 42.8%
CC1CCN(CCCn2c(=S)[nH]c3ccc(N4CCOCC4)cc3c2=O)CC1 | active: 52.3%
O=C1S/C(=C\C=C\c2ccco2)C(=O)N1c1ccc(O)cc1 | inactive: -7.05%
O=[N+]([O-])c1ccc(Cl)c(C2Nc3cccc4cccc(c34)N2)c1 | inactive: -20.5%
Cc1ccc(S(=O)(=O)c2cc3c(=O)n4ccccc4nc3n(Cc3ccco3)c2=N)cc1C | inactive: 9.75%
Cc1ccc2cc(C(c3nnnn3C(C)(C)C)N3CCCCCC3)c(=O)[nH]c2c1 (configuration not stated) | inactive: 14.6%
Nc1c(Cl)cc(NC(=O)c2ccccc2C(=O)O)cc1Br | inactive: -2.95%
c1coc(-c2nnc(-c3ccco3)nn2)c1 | inactive: 7.95%
CC(C)(C)C(=O)NC(Nc1cccc2cccnc12)C(Cl)(Cl)Cl (configuration not stated) | inactive: -3.75%
Cc1[nH][nH]c(=O)c1C(c1ccc(-c2ccc(Cl)c(C(=O)O)c2)o1)c1c(C)[nH][nH]c1=O | inactive: 8%
O=c1[nH]nc(CNc2ccc(O)cc2)c2ccccc12 | inactive: -8.45%
Cc1n[nH]c(=S)n(NC(=O)/C=C/C(=O)Nn2c(=S)[nH]nc(C)c2=O)c1=O | active: 51.5%
O=C(c1cccc2cccc(O)c12)N1CCCCC1 | inactive: -3.85%
Cc1c(CC(=O)O)c(=O)oc2c(C)c(OCc3ccccc3Br)ccc12 | inactive: -1.95%

Compound | inhibition
NS(=O)(=O)c1cnccc1Nc1ccc(Cl)cc1 | inactive: -1.95%
Cc1[nH][nH]c(=O)c1C(c1ccc(-c2cccc(Cl)c2)o1)c1c(C)[nH][nH]c1=O | inactive: -29.4%
COc1ccc(S(=O)(=O)Nc2ccc(O)c3ccccc23)cc1 | inactive: -2.65%
CN1c2ccccc2C(C)(C)C12C=Nc1c(cc(N3CCOCC3)c3ccccc13)O2 (configuration not stated) | inactive: 9.7%
CC(=O)N(C1=C(Cl)C(=O)c2ccccc2C1=O)c1ccc(C(=O)O)cc1 | inactive: 8.95%
CC(=O)NC(=S)Nc1ccc(NC(=S)NC(=O)/C=C/c2ccco2)cc1 | inactive: -10.8%
COc1ccc(NC(=O)N2c3ccc(OC)cc3C(C)=CC2(C)C)cc1 | inactive: 3.25%
O=c1c2cc(N3CCOCC3)ccc2[nH]c(=S)n1Cc1ccccn1 | active: 56.3%
O=[N+]([O-])c1cc(Cl)cc(/C=N/NC(=S)Nc2ccc(S(=O)(=O)N3CCOCC3)cc2)c1O | active: 80.5%
CCCCn1c(NC(=O)c2ccc(Br)o2)c(S(=O)(=O)c2ccccc2)c2nc3ccccc3nc21 | inactive: 1.65%
COc1ccc(-c2nc3ccncc3[nH]2)cc1OC | active: 46.5%
O=C(O)CN1C(=O)/C(=C/c2ccc(SCc3ccccc3)o2)SC1=S | inactive: 8.35%
Cc1c(O)ccc2c(CC(=O)N[C@@H](Cc3ccc(O)cc3)C(=O)O)cc(=O)oc12 | active: 39.9%
N#Cc1c(-c2cccc(Br)c2)cc(-c2ccco2)[nH]c1=O | active: 31.6%
O=[N+]([O-])c1c(NCCCO)cc(Sc2ccc(Cl)cc2)c2nonc12 | inactive: -10.6%
Cc1ccc(Sc2cc(NCCCO)c([N+](=O)[O-])c3nonc23)cc1 | inactive: 0.15%
Cc1nnc(Sc2cc(NCCO)c([N+](=O)[O-])c3nonc23)s1 | inactive: 4.05%
CN(c1ccccc1)c1ccc(/C=C(\CCC(=O)O)c2nc3ccccc3s2)cc1[N+](=O)[O-] | inactive: 7.85%
Cc1cccc(S(=O)(=O)C(C#N)c2nc3ccccc3nc2N2CC(C)OC(C)C2)c1 (configuration not stated) | inactive: 9.45%
CC(C)(C)OC(=O)c1c(N)n(CCCN2CCCC2=O)c2nc3ccccc3nc12 | active: 41.4%
O=C(CSc1ncccn1)NCc1ccc2c(c1)OCO2 | inactive: -2.65%
CC(=O)OCCCNc1cc(SCc2ccco2)c2nonc2c1[N+](=O)[O-] | inactive: -4.35%
Cc1c(C(=O)c2ccc(F)cc2F)c2ccccn2c1CCC#N | inactive: 17.8%

Compound | inhibition
Cc1cccc(C(=O)O)c1NC(=O)c1ccc(F)cc1 | inactive: -7.25%
N#CCCN(Cc1cccnc1)C(=S)NC1CC2C=CC1C2 (configuration not stated) | inactive: -9.75%
O=C(Nc1ccc2nc3ccccc3nc2c1)c1ccc(Br)cc1 | inactive: 20.6%
CC(C)c1ccccc1NC(=O)COc1ccc(C(=O)NCCc2ccccc2)cc1 | inactive: -3.35%
Fc1ccc(NC(=S)Nc2ccc3nccnc3c2)cc1 | inactive: 7.9%
COc1ccc(CN2C(=O)Cc3c2nc(N)c2c(N)nc(N4CCOCC4)c(C#N)c32)cc1 | active: 42.5%
COc1ccc2c(c1)-c1nc(/N=C/c3ccc(O)cc3)sc1CC2 | inactive: -9.7%
Cc1ccc(NC(=O)Nc2cccn(Cc3c(F)cccc3Cl)c2=O)cc1 | inactive: 3.65%
Cc1cc(N2C(=O)c3ccc(C(=O)Nc4ccc(O)cc4C(=O)O)cc3C2=O)no1 | inactive: -3.45%
COC1=C(Nc2ccc(O)cc2)C(=O)c2ccccc2C1=O | inactive: -45.3%
COc1ccc(-c2ccnc3nc(/N=C/N(C)C)nn23)cc1 | active: 44.7%
CNS(=O)(=O)c1ccc2nc(NC(=O)/C=C/c3ccco3)sc2c1 | inactive: 25.6%
O=C(NC(=S)Nc1cccc2c(O)cccc12)c1cccc(Br)c1 | inactive: 17.4%
CCOc1c(Br)cc(/C=C2\C(=O)N(CCC#N)N=C2C)cc1OC | inactive: -4.9%
CCCCCCC#Cc1cncc(C(=O)NNC(=O)Nc2cc(Cl)cc(Cl)c2)c1 | inactive: -17%
COCCCn1c(C(=O)N2CCOCC2)cc2c(=O)n3ccccc3nc21 | active: 52.1%
CCc1ccc(S(=O)(=O)Nc2ccc(O)c3ccccc23)cc1 | inactive: -12.7%
COc1ccc(C=Nc2ccc3[nH]ncc3c2)c(O)c1 | inactive: -4.5%
C[n+]1cccc2ccc3c(c21)OC(N)=C(C#N)C3c1ccccc1 (configuration not stated) | inactive: -12.1%
Cc1ccc(NC(=O)CN2C(=O)N/C(=C/c3cccn3-c3ccc(C(=O)O)cc3)C2=O)cc1 | inactive: 11.3%
Cc1ccc(N=Nc2c(N)[nH]n3c(=O)cc(C)nc23)cc1 | inactive: -0.85%
NC(N)=NS(=O)(=O)c1ccc(NC(=S)NC(=O)/C=C/c2ccco2)cc1 | inactive: 13.2%
Oc1cccc2c(NC(=S)Nc3ccc(OC(F)F)cc3)cccc12 | inactive: 13.9%
